# Experimental data reported in PubChem BioAssay AID493208 (National Center for Advancing Translational Sciences (NCATS), 2011).
# The whole screen tested about 44,000 compounds, of which about 340 (0.77%) were called active. Another 5% or so got no clear call; they are omitted. Calls follow the shape of the dose curve; as a rule, active = well fitted inhibition curve with a large enough effect; inconclusive = small, poorly fitted or top-dose-only effect; inactive = flat fitted curve, though single readings scatter. The list shows a part of the results.
# Test: Acumen qHTS Assay for Inhibitors of the mTORC1 Signaling Pathway in MEF (Tsc2-/-, p53-/-) Cells: Sytravon; also: nearly all actives have a fitted effect of over 50% in size;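 as to activity change, negative = inhibition: plate controls were DMSO for no effect and rapamycin for full effect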
# Conditions: phospho-rpS6 immunofluorescence/PI, 24 h; series mostly up to 38.3 µM; activity change, negative = inhibition: at the top concentration
# Procedure, shortened: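 Tsc2-/-, p53-/- MEFs (empty-vector stable line) in DMEM + 10% FBS were treated with compounds 24 h at 37 degree Celsius, fixed, and immunostained for phospho-rpS6 (Alexa-488) with propidium iodide counterstain. Laser-scanning cytometry gave % positive cells, normalized against 7.5 nM rapamycin and DMSO.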
# Potency is read from the fitted curve at half-maximal effect.
SMILES,"activity change, negative = inhibition",Potency
CCOC(=O)c1cc(-c2ccccc2)n(CCCC(=O)Nc2ccc(C)c(Cl)c2)c1C,inactive: -5.99%,
Cc1ccc(-n2c(=O)c3c(C)c(C(=O)N(C)C)sc3n(CC(=O)N(C)c3ccccc3)c2=O)cc1C,inactive: -0.761%,
Cc1ccc(C)c(NC(=O)CSc2nc3nccnc3c(=O)n2CCc2c[nH]c3ccccc23)c1,inactive: -0.857%,
CCc1cccc(C)c1NC(=O)CN1CCN(Cc2ccccc2Cl)S1(=O)=O,inactive: 0.0322%,
CCc1ccc(NC(=O)Cn2c(=O)c3cccn3c3ccccc32)cc1,inactive: 4.59%,
O=C(Nc1ccc(-c2nc3cc(Cl)ccc3o2)cc1)c1cc(Br)ccc1Cl,inactive: -28.7%,
COc1cc(C(=O)NC2(C(F)(F)F)C(=O)NC(C)=C2C#N)cc(OC)c1OC (stereo unspecified),inactive: 1.75%,
CCN(CC)S(=O)(=O)c1ccc2c(c1)N(CC(=O)N1CCN(c3cccc(C)c3)C(C)C1)C(=O)CO2 (stereo unspecified),inactive: 0.416%,
CCN(C(=O)CSc1nc2ccccc2c2nc(CCn3c(C)nc4ccccc43)nn12)c1cccc(C)c1,inactive: -1.09%,
COc1ccc(-c2csc3nc(-c4ccc(Cl)cc4)oc(=O)c23)cc1,inactive: 1.59%,
Cc1cccc(NC(=O)CCn2cnnn2)c1,inactive: -3.94%,
CC(=O)c1ccc(N2CCN(C(=O)Nc3ccc(C)cc3)CC2)cc1,inactive: -1.04%,
Cc1ccc(Nc2c(-c3ccc(N4CCOCC4)cc3)nc3ccc(C)cn23)cc1,inactive: 1.12%,
Cn1c(=O)oc2cc(S(=O)(=O)NC(CC(=O)O)c3cccc(Br)c3)ccc21 (stereo unspecified),inactive: -7.99%,
COc1ccc(NC(=O)CSc2nnc(N)s2)cc1,inactive: 8.63%,
CCC(C)n1c(SCC(=O)Nc2ccccc2C(=O)OC)nc2ccsc2c1=O (stereo unspecified),inactive: -7.05%,
O=C(NCc1c(-n2cccc2)sc2c1CCCC2)Nc1cccc(C(F)(F)F)c1,inactive: -2.58%,
COCCCNC(=O)CCCn1c(SCC(=O)c2ccc(Br)cc2)nc2c(sc3ccccc32)c1=O,inactive: -8.69%,
Cc1ccc(C(=O)NCC(c2ccc(Cl)cc2)N2CCCCC2)cc1 (stereo unspecified),inactive: -0.22%,
CCc1ccc(NC(=O)C2CCCN(S(=O)(=O)c3ccc4c(c3)oc(=O)n4C)C2)cc1 (stereo unspecified),inactive: 1.19%,
CCOc1ccc(C(=O)N2CC(=O)Nc3ccc(C)cc3C2c2ccc(F)cc2)cc1OCC (stereo unspecified),inactive: 5.68%,
COc1cccc(CNC(=O)c2cccc(N3CCCS3(=O)=O)c2)c1,inactive: 5.84%,
Cc1ccc(Cl)c2sc(NC(=O)c3ccc(S(=O)(=O)N4CCCC4)cc3)nc12,inactive: 4.48%,
CC(C)(C)OC(=O)N1CCC(c2c(C(=O)N3CCCCC3)cnn2-c2ccc(F)cc2)CC1,inactive: -7.18%,

SMILES,"activity change, negative = inhibition",Potency
COc1cccc(NC(=O)c2oc3ccc(S(=O)(=O)N(C)C4CCCCC4)cc3c2C)c1,inactive: -0.683%,
Cc1ccc(C)c(NC(=O)CSc2nc3ccccc3nc2N2CCOCC2)c1,inactive: -3.55%,
CCSc1ccccc1C(=O)N1CCN(c2nc3ccccc3s2)CC1,inactive: -5.21%,
CCc1nn(CC(=O)NCCc2ccc(Cl)cc2)c(=O)c2cc3c(OC)cccc3n12,inactive: 2.68%,
COC(=O)c1ccc(NC(=O)c2cnn(-c3ccc(Cl)cc3)c2C2CCN(C(=O)OC(C)(C)C)CC2)cc1,inactive: 1.41%,
Cc1cc(C)c(NC(=O)c2cc(C)nc3c2c(C)nn3-c2cccc(F)c2)c(C)c1,inactive: -10.7%,
Cc1cc2oc(C(=O)N(Cc3ccc(Cl)cc3)Cc3ccco3)c(C)c2cc1Cl,inactive: 2.73%,
CCc1ccc(-c2nn(-c3ccc(OC)cc3)c3c2cnc2ccc(OC)cc23)cc1,inactive: -13.5%,
CCN(CC)C(=O)c1c(NC(=O)c2ccccc2F)sc2c1CCC(C(C)(C)C)C2 (stereo unspecified),inactive: -0.633%,
O=C(CSc1nccn1Cc1ccc2c(c1)OCO2)Nc1ccccc1F,inactive: 0.265%,
CCCn1c(=O)sc2cc(NC(=O)c3ccccc3Cl)ccc21,inactive: -3.81%,
CCC1CCCCN1CCCNC(=O)c1cn(C)c2ccc(S(=O)(=O)N(C)C3CCCCC3)cc2c1=O (stereo unspecified),inactive: 2.41%,
COc1cccc(N2CCN(C(=O)c3cccn3-c3nnc(N4CCCCC4)s3)CC2)c1,inactive: 6.99%,
COc1cc(/C=C(/C#N)c2nc(-c3cc4ccccc4oc3=O)cs2)ccc1O,inactive: -3.22%,
Cc1c(Cl)cccc1NC(=O)Nc1c[nH]c(=O)[nH]c1=O,inactive: 8.72%,
Cc1cccc(NC(=O)CSc2nc3c([nH]c4ccccc43)c(=O)n2-c2cc(C)cc(C)c2)c1,inactive: -14.1%,
CC1CCCCN1C(=O)CSc1nc(-c2ccccc2)no1 (stereo unspecified),inactive: 3.71%,
COc1cc(OC)cc(C(=O)Nc2nc(-c3nnn(-c4ccc(C)cc4)c3C)ns2)c1,inactive: -28%,
CCOC(=O)C1=C(CN2CCC(C)CC2)NC(=O)NC1c1ccc(OC(C)C)cc1 (stereo unspecified),inactive: 2.36%,
CCOC(=O)c1ccccc1NC(=O)CSc1nc(=O)[nH]c2c1CCCC2,inactive: -0.148%,
COc1ccc(Br)cc1CNC(=O)Cn1nc(C)n2c(cc3cc(F)ccc32)c1=O,inactive: -0.466%,
CCc1ccc2occ(CC(=O)N(Cc3ccccc3)C3CCS(=O)(=O)C3)c2c1 (stereo unspecified),inactive: -5.12%,
Cc1ccc(NC(=O)CN2C(=O)C(c3ccccc3)=NC23CCCCC3)cc1C,inactive: 0.541%,
CCS(=O)(=O)N1CCCc2cc(C(=O)Nc3cc([N+](=O)[O-])ccc3C)ccc21,inactive: -2.73%,

SMILES,"activity change, negative = inhibition",Potency
CCc1ccc(S(=O)(=O)c2nnn3c2nc(N(C)Cc2ccccc2)c2cc(Cl)ccc23)cc1,inactive: -5.33%,
COc1cccc(CNC(=O)Cn2c(=O)ccc3cc(S(=O)(=O)N4CCCC4)ccc32)c1,inactive: -4.1%,
COc1ccc(Nc2nc3c(S(=O)(=O)c4ccccc4)nnn3c3ccc(Cl)cc23)cc1,inactive: -9.09%,
CCN(CC)CCCNC(=O)c1cn(CC)c2ccc(S(=O)(=O)N3CCC(C)CC3)cc2c1=O,inactive: -6.32%,
O=C(O)c1ccc(NC(=O)c2ccc(Cl)c(S(=O)(=O)N3CCCCCC3)c2)cc1,inactive: 2.43%,
CN(C1CCCCC1)S(=O)(=O)c1ccc2c(c1)c(=O)c(C(=O)N1CCN(c3ccccc3)CC1)cn2C,inactive: -1.09%,
O=S(=O)(NCCS(=O)(=O)N1CCN(c2ccccc2)CC1)c1ccccc1,inactive: -1.45%,
COC(=O)c1ccc(NC(=O)C(C)Sc2nc(=O)cc(N)n2CCc2ccccc2)cc1 (stereo unspecified),inactive: 0.183%,
Cc1nc2c3ccccc3nc(NNC(=O)CCC(=O)O)n2n1,inactive: -2.68%,
Cc1ccc(NC(=O)CN2C(=O)CCSc3ccccc32)c(C)c1,inactive: -4.34%,
COc1ccc(CCNC(=O)c2ccc3c(c2)nc(C)n3-c2ccc(Br)cc2)cc1OC,inactive: -3.19%,
Cc1ccc(Cn2c(CO)cnc2SCc2ccc(F)cc2)cc1,inactive: -11.9%,
O=C(Nc1ccc(Cl)cc1Cl)c1cc(S(=O)(=O)NCc2ccc3c(c2)OCO3)ccc1F,inactive: 0.878%,
Cc1ccccc1NC(=O)c1cc2c([nH]c1=O)CC(C)(C)CC2=O,inactive: 0.962%,
Cc1nn(CCC(=O)Nc2ccc(Cl)cc2)c(C)c1S(=O)(=O)N1CCCCC1,inactive: -0.845%,
COc1ccc(-c2cc(C(=O)Nc3cc(C(F)(F)F)ccc3Cl)no2)cc1,inactive: -7.87%,
COc1ccccc1Cn1cc(C(=O)c2ccccc2)c(=O)c2cc(OC)c(OC)cc21,inactive: -2.83%,
CCOc1ccc(C(=O)Nc2ccc(-c3cc4ccccc4oc3=O)cc2)cc1Br,inactive: 6.64%,
CN(C)c1ccc(CNC(=O)C2CCN(c3nnc(-n4cccc4)s3)CC2)cc1,inactive: -13.5%,
CCc1cccc(NC(=O)C2CCN(S(=O)(=O)c3ccc(Br)s3)CC2)c1,inactive: -11.1%,
COc1cc(OC)c(NC(=O)C2=C(C)C(=O)OC23CCN(C(C)=O)CC3)cc1Cl,inactive: -8.46%,
Cc1ccc(-n2ncc3c(=O)n(Cc4cccc(Cl)c4)cnc32)cc1C,inactive: -0.446%,
Cc1ccc(CSc2nc3cccnc3n2Cc2ccc(C(=O)NC3CC3)cc2)cc1,inactive: -8.01%,
O=C(NCc1ccccc1)c1cccn1-c1nnc(N2CCCCC2)s1,inactive: 0%,

SMILES,"activity change, negative = inhibition",Potency
Cc1ccc(C)c(NC(=O)Nc2cc3c(cc2N2CCCCC2)n(C)c(=O)n3C)c1,inactive: -12.3%,
COc1ccc(Cn2c(C(=O)O)c(CNCc3ccco3)c3ccc(C)cc32)cc1,inactive: -18.5%,
CCOc1ccccc1CNC(=O)c1cnn(-c2ccc(C)cc2)c1-n1cccc1,inactive: 0.277%,
COCCNC(=O)CSc1c(C)cnc2c1c(=O)n(C)c(=O)n2C,inactive: 2.4%,
Cc1ccc(NC(=O)Cn2cnc3c(oc4ccccc43)c2=O)cc1Cl,inactive: 7.59%,
COc1ccc(NC(=O)CCCOc2cc(=O)n(C)c3ccccc23)c(OC)c1,inactive: -0.396%,
Cn1c(NCc2cccc(Cl)c2)nc2ccccc21,inactive: -3.63%,
CCCn1c2ccccc2c2cnn(CC(=O)NCCc3ccc(S(N)(=O)=O)cc3)c(=O)c21,inactive: -5.26%,
COc1ccccc1C(=O)Nc1nnc(SCc2cc(=O)c3ccccc3[nH]2)s1,inactive: 3.34%,
C=Cc1ccc(CN2C(=O)N(c3ccc(C)c(C)c3)S(=O)(=O)c3ccccc32)cc1,inactive: -0.563%,
CCOc1ccc(NC(=O)c2cc3cc4ccc(C)cc4nc3o2)cc1,inactive: -0.108%,
CCN(C(=O)c1ccc(C(=O)N(CC)c2ccccc2C)cc1)c1ccccc1C,inactive: -1.37%,
Brc1cccc(-c2nnn3c2nc(NC2CCCCC2)c2ccccc23)c1,inactive: -25.3%,
Cc1ccc(-n2c(=O)c3ccc(C(=O)NCc4ccco4)cc3n(Cc3ccccc3Cl)c2=O)cc1,inactive: 9.31%,
CC1CCCCN1CCNC(=O)c1ccc(Cn2c(SCc3ccccc3)nc3cccnc32)cc1 (stereo unspecified),inactive: -10.7%,
Cc1nn(-c2ccc(N3CCOCC3)nn2)c(C)c1CCC(=O)NCc1ccc(Cl)cc1,inactive: -6.22%,
CCS(=O)(=O)c1ncc(Cl)c(C(=O)Nc2ccc(S(=O)(=O)N(C)c3ccccc3)cc2)n1,,active: 414 nM
Cc1cccc(C)c1Nc1sc(C(=O)c2ccccc2)c(N)c1S(=O)(=O)c1ccccc1,inactive: -10.7%,
COc1ccc2nc3sc(C(=O)NCCc4ccc(Cl)cc4)cc3cc2c1,inactive: 6.81%,
Cc1cc(O)c(C(c2ccccc2)N2CCC(C)CC2)c(=O)n1Cc1ccco1 (stereo unspecified),inactive: -4.63%,
CCN(C(=O)c1sc2nc3n(c(=O)c2c1C)CCCC3)c1ccccc1F,inactive: 7.55%,
CC(=O)c1ccc(NC(=O)CSc2nnc3ccc(-c4ccc(F)cc4)nn23)cc1,inactive: -11.6%,
Cc1ccc(CCNC(=O)c2cc(-c3ccccc3)n[nH]2)cc1,inactive: -13%,
COc1ccc(CNC(=O)CCc2c(C)nn(-c3ccc(N4CCOCC4)nn3)c2C)c(OC)c1,inactive: -6.38%,
